Values joined by “and” are separate entries in the source; they are usually repeats but may differ in a detail not shown here. Identical values can stand only once. About 50,000 (12%) of roughly 420,000 compounds were called active. Inconclusive means that the source gave no clear call. Such entries were picked first, then a sample of the others. Calls follow the shape of the dose curve; as a rule, active = well fitted inhibition curve with a large enough effect; inconclusive = small, poorly fitted or top-dose-only effect; inactive = flat fitted curve, though single readings scatter. Potencies of inconclusive entries are left out as doubtful fits.
Assay: qHTS for Inhibitors of human tyrosyl-DNA phosphodiesterase 1 (TDP1): qHTS in cells in presence of CPT; also: nearly all actives have a fitted effect of over 55% in size
Conditions: chicken DT40 Tdp1-/-;hTDP1 cells + 20 nM CPT, ATP luminescence, 48 h; activity change, negative = growth inhibition: at 46.2 µM (top of the series)
Outline: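 Chicken DT40 Tdp1-/- cells stably complemented with human TDP1 were seeded at 400 cells/well in medium containing 20 nM camptothecin, exposed to pin-transferred compounds, and grown at 37 °C for at least 48 hr. Viability was read as ATP luminescence.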
% is scaled to controls: 0 for no effect and ±100 for the full control effect; potency is read from the fitted curve at half-maximal effect; tags tell the direction and shape of the fitted curve.

SMILES | Potency | activity change, negative = growth inhibition
COc1ccc(Nc2nc(C)c3ccccc3n2)cc1 | inactive | 
CCN(CC)S(=O)(=O)c1ccc(OC)c(NC(=O)/C=C/c2ccco2)c1 | inconclusive [inhibitor, single point] | 
COc1cc(OC)c(NC(=O)c2nn(C)c3c2COc2ccccc2-3)cc1Cl | inactive | 
O=C(NCCc1ccc(Cl)cc1)c1cc(S(=O)(=O)N2CCCC2)ccc1F | active: 25.9 µM | 
CC(C)Oc1ccc(CCNC(=O)C2CCC(=O)N(Cc3cccc(F)c3)C2)cc1 (stereo unspecified) | inconclusive [inhibitor, partial curve] | 
CCCN(CCC)CCCNC(=S)Nc1ccc2nc(N3CCCC3)cc(C)c2c1 | inconclusive [inhibitor, single point] | 
CCOC(=O)c1ccccc1NC(=O)c1cn(-c2ccc(OC)cc2)c(=O)c2ccccc12 | inconclusive [inhibitor, single point] | 
COc1cc(C(C#N)N2N=C(c3ccccc3)CC2c2ccccc2)ccc1O (stereo unspecified) |  | inconclusive: -33.5% [inhibitor]
O=C(c1ccc(OC2CCN(Cc3ccccc3C(F)(F)F)CC2)cc1)N1CCCCC1 | inconclusive [inhibitor, single point] | 
CC(C)n1c(O)c(N=NC(=O)CNC(=O)Cc2ccc(Cl)cc2)c2ccccc21 | inconclusive [inhibitor, single point] | 
COc1ccc(S(=O)(=O)NNC(=O)Cc2csc(C)n2)cc1[N+](=O)[O-] | inconclusive [inhibitor, full curve, poor fit] | 
COc1ccc(-n2c(Cc3ccccc3)nnc2SCC(=O)N2CCCc3ccccc32)cc1 | inconclusive [inhibitor, single point] | 
Cn1c(=O)c2c(SCC(=O)Nc3ccccc3F)nc(-c3ccccc3F)nc2n(C)c1=O | inconclusive [inhibitor, single point] | 
CC(C)(C)c1nc(NCCO)c2nnn(Cc3ccccc3)c2n1 | inconclusive [inhibitor, single point] | 
Cc1ccc(-c2nnc(Nc3cccc(Br)c3)c3ccccc23)cc1S(=O)(=O)N1CCN(C)CC1 | active: 13 µM | 
COc1ccccc1CN1CCCC2(CCN(C(=O)c3cnccn3)CC2)C1 | inconclusive [inhibitor, single point] | 
Cc1cccc(C(=O)Nc2nnc(S(=O)(=O)N3CCOCC3)s2)c1 | inactive | 
COc1cccc(CNC(=O)CCNC(=O)c2ccc(Br)o2)c1 | inconclusive [inhibitor, single point] | 
COc1ccc(Cn2nc3n(c2=O)-c2ccccc2OC3)cc1 | inactive | 
Cc1c(Cl)cccc1NC(=S)N(Cc1cccs1)C1CCCC1 | inactive | 
CN1C(=O)CSc2ccc(NC(=O)N3CCN(c4ccccn4)CC3)cc21 | inconclusive [inhibitor, single point] | 
O=C(CSc1ncnc2c1oc1ccccc12)N1CCN(c2ccccc2)CC1 | inconclusive [inhibitor, single point] | 

SMILES | Potency | activity change, negative = growth inhibition
Cc1ccc(NC(=O)CSc2sc3c(O)cc(=O)[nH]c3c2C#N)cc1C | inactive | 
C#CC(CC)(CC)NC(=O)c1cc(S(=O)(=O)N2CCCCC2)ccc1N1CCOCC1 | inactive | 
C=C[C@@H]1c2ccccc2N(S(=O)(=O)c2ccc(C)cc2)[C@H](c2ccc(C(F)(F)F)cc2)C1(C#N)C#N | active: 8.91 µM and active: 23.1 µM | 
C=CCN1c2ccccc2[C@]23C[C@@H](C(=O)OC)N(C(=O)c4cccs4)C2=NC(C(=O)OC)=C(C(=O)OC)[C@H]13 | inconclusive [inhibitor, single point] | 
CSc1ccc(CCNS(=O)(=O)c2cc(-c3cc(C)no3)ccc2C)cc1 | inconclusive [inhibitor, single point] | 
NCCn1c(=O)c(CCc2ccccc2)nc2cncnc21 | inactive | 
OCC1OC(n2cnc3c(SCc4ccccc4)ncnc32)C(O)C1O (stereo unspecified) | inconclusive [inhibitor, partial curve, poor fit] | 
O=C(NCCN1CCN(c2ccccc2)CC1)c1cccn2c(=O)c3ccccc3nc12 | inconclusive [inhibitor, single point] | 
O=C1CCC2S/C(=C/Nc3ccc(C(F)(F)F)cc3)C(=O)N12 (stereo unspecified) | inconclusive [inhibitor, single point] | 
CCOc1ccc(OC(=O)c2sc3ncn(Cc4cccc(F)c4)c(=O)c3c2C)cc1 | inconclusive [inhibitor, partial curve] | 
O=C(CSc1c2c(nc3ccc(Cl)cc13)CCCC2)N1CCN(c2ccc(Cl)cc2)CC1 | active: 11.6 µM | 
Cc1cccc(CSc2nnc(-c3ccccn3)n2N)c1 | inconclusive [inhibitor, single point] | 
COc1ccc(OC)c(NC(=O)C(Cc2ccccc2)NS(=O)(=O)c2ccc3c(c2)CCC(=O)N3)c1 (stereo unspecified) | inconclusive [inhibitor, single point] | 
Cc1ccc(CSc2nc3ccncc3n2CC(=O)Nc2cc(C)cc(C)c2)cc1 | inconclusive [inhibitor, single point] | 
c1cncc(Nc2c3ccccc3nc3ccccc23)c1 | inconclusive [inhibitor, partial curve] | 
COc1cc2nc(CN3CCN(S(=O)(=O)c4ccccc4)CC3)[nH]c(=O)c2cc1OC | inactive | 
CCOC(=O)C1CCCNC1=O (stereo unspecified) | inactive | 
Cc1ccc(S(=O)(=O)N2CCN(C(=O)CSc3ccccn3)CC2)c(C)c1 | inconclusive [inhibitor, partial curve, poor fit] | 
COCCN(C(=S)Nc1cc(C)cc(C)c1)C(C)c1cccs1 (stereo unspecified) | active: 18.4 µM | 
Cc1cc(=O)oc2c3c(cc(OCC(=O)NCc4ccncc4)c12)OC(C)(C)CC3 | inconclusive [inhibitor, single point] | 
Cn1cc([C@]2(O)C(=O)Nc3ccc(Br)cc32)c2ccccc21 | inconclusive [inhibitor, single point] | 
CC(C)c1ccc(NC(=O)[C@H](Cc2c[nH]c3ccccc23)NC(=O)[C@@H]2Cc3ccccc3CN2)cc1 | inconclusive [inhibitor, single point] | 

SMILES | Potency | activity change, negative = growth inhibition
COc1cc(OC)cc(C(=O)Nc2ccc(NC(=O)c3ccco3)c(C)c2)c1 | inconclusive [inhibitor, single point] | 
C[C@H](CCC(=O)O)[C@H]1CC[C@H]2[C@H]3C(C[C@H](O)[C@]12C)[C@@]1(C)CC[C@@H](O)C[C@H]1C[C@H]3O (stereo partly specified) | inactive | 
COc1ccc(C(=O)NC(=S)NCCc2ccccc2)cc1 | inconclusive [inhibitor, single point] | 
O=c1[nH]nc(Cc2ccc(-c3cccc(Cl)c3)o2)c2ccccc12 | active: 16.4 µM | 
Oc1c(Br)cc(C2N=C(c3ccccc3)NO2)cc1Br (stereo unspecified) | inconclusive [inhibitor, single point] | 
Cc1ccc(NN=Nc2nc3c([nH]2)c(=O)n(C)c(=O)n3C)cc1 | inconclusive [inhibitor, single point] | 
O=C(O)c1cc(-c2ccc(Cl)c(Cl)c2)n(-c2ccccc2)n1 | inactive | 
COc1ccc(S(=O)(=O)N2CCOC2CNC(=O)C(=O)NCCc2ccccc2)cc1C (stereo unspecified) | inconclusive [inhibitor, single point] | 
CCCNC(=O)c1cc(S(=O)(=O)N2CCC3(CC2)OCCO3)ccc1F | inactive | 
CCOc1ccc(OCc2ccc(C(=O)N3N=C(C(F)F)CC3(O)C(F)F)o2)cc1 (stereo unspecified) | inconclusive [inhibitor, partial curve, poor fit] | 
COc1cccc(CNc2ncc(C(=O)Nc3cc(OC)c(OC)c(OC)c3)c(C)n2)c1 | active: 8.2 µM | 
COc1ccc(-c2c(C#N)c(SCC(N)=O)nc3c2CCCC3)cc1 | inconclusive [inhibitor, single point] | 
CCc1ccc(CNC(=O)CCn2ccc3cc(S(=O)(=O)N4CCCC4)ccc32)cc1 | active: 20.6 µM | 
Cc1ccc(S(=O)(=O)CCC(=O)OCC(=O)c2c(N)n(CC(C)C)c(=O)n(C)c2=O)cc1 | inconclusive [inhibitor, single point] | 
O=C(Nc1cccc(-c2ccc3nncn3n2)c1)c1ccco1 | inconclusive [inhibitor, single point] | 
COc1ccc(CN(C(=O)c2cnccn2)C(C(=O)Nc2ccc(F)cc2)c2ccccc2)cc1 (stereo unspecified) | inconclusive [inhibitor, single point] | 
O=C(COCc1cc(-c2ccc3c(c2)OCO3)on1)Nc1cccc(O)c1 | inconclusive [inhibitor, single point] | 
Cc1cc(C)c(S(=O)(=O)ON2C(=O)c3ccccc3C2=O)cc1C | active: 2.59 µM | 
CCCN1C(=O)/C(=C2\SC(N3CCCCC3)=NC2=O)c2ccccc21 | inconclusive [inhibitor, single point] | 
O=C(NCc1ccco1)c1cc2n(n1)C(C(F)(F)F)CC(c1ccc(Br)cc1)N2 (stereo unspecified) |  | inconclusive: -31.1% [inhibitor]
CCOc1ccc2oc(C(=O)NC3CCN(Cc4ccccc4)CC3)c(C)c2c1 | active: 3.66 µM | 
COc1cc(C)cc2c1OC(c1ccccc1)CC2=O (stereo unspecified) | inconclusive [inhibitor, single point] | 

Source: PubChem BioAssay AID686979 (National Center for Advancing Translational Sciences (NCATS), 2013)
